Test results as given in the supplement of paper PMC9135407.
Several values for one entry are separate records, joined by “and”; a condition that tells them apart may be missing. Identical values can stand only once. Counter-ions that a name gives are not always drawn. About 620 (11%) of roughly 5,800 compounds showed activity.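 How the source made its calls: active = score above a cut-off or among the top three wells of a plate; in these data no inactive exceeds 0.85.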 This is a selection; strong and weak results do not stand in their true shares.

System: primary human hepatic stellate cells (donor 1)
Assay: scaled lipid accumulation score (0 = DMSO-like, 1 = nortriptyline-like); higher = stronger HSC inactivation (lipid re-accumulation), active = hit call of the paper
Settings: 48 h
[1] = library stock concentration: 10 mM
[2] = library stock concentration: 6 mM
[3] = library stock concentration: 80 uM
[4] = library stock concentration: 400 uM
[5] = library stock concentration: 3.33 mM
[6] = library stock concentration: 1 mM

N#Cc1nn(-c2c(Cl)cc(C(F)(F)F)cc2Cl)c(N)c1[S+]([O-])C(F)(F)F (stereo not drawn) [Fipronil]
scaled lipid accumulation score [1]: inactive: ≤ -0.027

O=C1C[C@@H]2OCC=C3CN4CC[C@]56c7ccccc7N1[C@H]5[C@H]2[C@H]3C[C@H]46 [Strychnine HCl]
scaled lipid accumulation score [2]: inactive: 0.044

O=C1C[C@@H]2OCC=C3CN4CC[C@]56c7ccccc7N1[C@H]5[C@H]2[C@H]3C[C@H]46 [Strychnine]
scaled lipid accumulation score [2]: inactive: ≤ 0
scaled lipid accumulation score [1]: inactive: ≤ 0

CC[N+](CC)(CCCNC1=CC(=O)C(NCCC[N+](CC)(CC)Cc2ccccc2)=CC1=O)Cc1ccccc1 [Benzoquinonium dibromide]
scaled lipid accumulation score [1]: inactive: 0.038

COc1cc2c(cc1O)C(CCc1ccc(Cl)cc1)N(C)CC2.Cl (stereo not drawn)
scaled lipid accumulation score [1]: active: 0.872

CCC(=O)O[C@@](Cc1ccccc1)(c1ccccc1)[C@@H](C)CN(C)C [Levopropoxyphene napsylate]
scaled lipid accumulation score: inactive: 0.039

CCNC(=O)C[C@@H]1N=C(c2ccc(Cl)cc2)c2cc(OC)ccc2-n2c(C)nnc21
scaled lipid accumulation score [3]: inactive: ≤ 0
scaled lipid accumulation score [4]: inactive: ≤ 0
scaled lipid accumulation score (library stock concentration: 2 mM): inactive: ≤ 0
scaled lipid accumulation score [5]: inactive: ≤ -0.009
scaled lipid accumulation score [1]: inactive: 0.174 and inactive: ≤ 0

CC(C)(C)c1cc(C=C(C#N)C#N)cc(C(C)(C)C)c1O [Tyrphostin 9]
scaled lipid accumulation score [1]: active: 1.27

COc1ccc(C[C@H]2NC[C@H](O)[C@H]2OC(C)=O)cc1 [Anisomycin] [listing 1 of 2 here]
scaled lipid accumulation score: active: 1.05

NCCc1cc(O)c(O)cc1O [Oxidopamine hydrochloride]
scaled lipid accumulation score (library stock concentration: 9.7 mM): inactive: ≤ -0.001
scaled lipid accumulation score [1]: inactive: ≤ 0

C#C[C@]1(O)CC[C@H]2[C@@H]3CCC4=Cc5nc6nc7ccccc7n6cc5C[C@]4(C)[C@H]3CC[C@@]21C
scaled lipid accumulation score [1]: inactive: 0.151

COc1ccc(C[C@H]2NC[C@H](O)[C@H]2OC(C)=O)cc1 [Anisomycin] [listing 2 of 2 here]
scaled lipid accumulation score [1]: active: 1.39

CN1c2ccccc2C(NCCCCCCC(=O)O)c2ccc(Cl)cc2S1(=O)=O (stereo not drawn) [Tianeptine]
scaled lipid accumulation score [1]: inactive: ≤ -0.006

CN1c2ccccc2C(NCCCCCCC(=O)O)c2ccc(Cl)cc2S1(=O)=O (stereo not drawn) [Tianeptine sodium]
scaled lipid accumulation score [5]: inactive: ≤ 0
scaled lipid accumulation score [1]: inactive: ≤ 0

C[C@H]1CCC/C=C/[C@@H]2C[C@H](O)C[C@H]2[C@H](O)/C=C/C(=O)O1 [Brefeldin A]
scaled lipid accumulation score [5]: inactive: 0.583
scaled lipid accumulation score [1]: inactive: 0.42 and inactive: 0.138
scaled lipid accumulation score (library stock concentration: 17.8 mM): inactive: 0.771

Cc1ncc(CNC(=O)N(CCCl)N=O)c(N)n1 [Nimustine]
scaled lipid accumulation score [1]: inactive: ≤ -0.027

Cc1ncc(CNC(=O)N(CCCl)N=O)c(N)n1 [Nimustine hydrochloride]
scaled lipid accumulation score [1]: inactive: 0.089

CCCC(=O)N[C@H]1CCOC1=O [N-butyryl-L-Homoserine lactone]
scaled lipid accumulation score [6]: inactive: 0.044

CNc1ccc(C(=O)CC(O)CCC(C)C2OC(=O)CC(O)CC(=O)CC(O)CC(O)CC(O)CC(O)CC3(O)CC(O)C(C(=O)OC)C(CC(O[C@@H]4O[C@H](C)[C@@H](O)[C@H](N)[C@@H]4O)/C=C/C=C/C=C/C=C/C=C/C=C/C=C/C2C)O3)cc1.COC(=O)C1C(O)CC2(O)CC(O)CC(O)CC(O)CC(O)CC(=O)CC(O)CC(=O)OC(C(C)CCC(O)CC(=O)c3ccc(N)cc3)C(C)/C=C/C=C/C=C/C=C/C=C/C=C/C=C/C(O[C@@H]3O[C@H](C)[C@@H](O)[C@H](N)[C@@H]3O)CC1O2 (stereo partly drawn) [Mepartricin]
scaled lipid accumulation score [1]: inactive: 0.017

COc1ccc2[nH]cc(CCN)c2c1 [5-Methoxytryptamine]
scaled lipid accumulation score [1]: inactive: ≤ 0

COc1ccc2[nH]cc(CCN)c2c1 [O-Methylserotonin hydrochloride]
scaled lipid accumulation score [1]: inactive: ≤ -0.055

C[N+]1(C)CCc2cc3c(cc2C1C1OC(=O)c2c1ccc1c2OCO1)OCO3 (single isomer, unassigned; (-)) [(-)-Bicuculline methobromide]
scaled lipid accumulation score [1]: inactive: ≤ 0

COc1ccc(/C=C\c2cc(OC)cc(OC)c2)cc1 [cis-trismethoxy Resveratrol]
scaled lipid accumulation score [6]: inactive: 0.097

Oc1ccc2c3c1O[C@H]1c4[nH]c5c(c4C[C@@]4(O)[C@@H](C2)N(CC2CC2)CC[C@]314)C[C@@]1(O)[C@H]2Cc3ccc(O)c4c3[C@@]1(CCN2CC1CC1)[C@H]5O4 [nor-Binaltorphimine dihydrochloride]
scaled lipid accumulation score [1]: inactive: ≤ -0.055 and inactive: ≤ 0

COc1cc(-n2c(=S)[nH]c3ccccc3c2=O)c(Cl)cc1Cl [Mdivi-1]
scaled lipid accumulation score [5]: inactive: ≤ -0.009
scaled lipid accumulation score [1]: inactive: 0.07

CC(=O)Nc1ccc(Cc2ccc(NC(C)=O)cc2)cc1
scaled lipid accumulation score [5]: inactive: ≤ -0.009
scaled lipid accumulation score [1]: inactive: 0.136

N.N.[Cl][Pt][Cl] [Cisplatin]
scaled lipid accumulation score [5]: inactive: ≤ 0
scaled lipid accumulation score (library stock concentration: 6.7 mM): inactive: ≤ 0
scaled lipid accumulation score [1]: inactive: ≤ 0 and inactive: 0.139

CCCN1C[C@H](CSC)C[C@@H]2c3cccc4[nH]cc(c34)C[C@H]21
scaled lipid accumulation score [1]: inactive: 0.575

CCCN1C[C@H](CSC)C[C@@H]2c3cccc4[nH]cc(c34)C[C@H]21 [Pergolide mesylate]
scaled lipid accumulation score: inactive: 0.211
scaled lipid accumulation score [5]: inactive: ≤ 0
scaled lipid accumulation score (library stock concentration: 4.9 mM): inactive: 0.207
scaled lipid accumulation score (library stock concentration: 6.4 mM): inactive: 0.23
scaled lipid accumulation score [1]: inactive: 0.216 and inactive: 0.021

CCCN1C[C@H](CSC)C[C@@H]2c3cccc4[nH]cc(c34)C[C@H]21 [Pergolide methanesulfonate]
scaled lipid accumulation score [1]: inactive: ≤ 0

CN1CC[C@]23CCCC[C@H]2[C@H]1Cc1ccc(O)cc13
scaled lipid accumulation score (library stock concentration: 9.9 mM): inactive: ≤ 0

CCCCc1ccc(C(=O)O)nc1 [Fusaric acid]
scaled lipid accumulation score: inactive: ≤ 0
scaled lipid accumulation score [1]: inactive: ≤ -0.07

COc1ccc(CCN)cc1OC [Homoveratrylamine]
scaled lipid accumulation score [1]: inactive: 0.046

CC1=C(O)C(=O)C=C2C1=CC=C1[C@@]2(C)CC[C@@]2(C)[C@@H]3C[C@](C)(C(=O)O)CC[C@]3(C)CC[C@]12C [Celastrol]
scaled lipid accumulation score [3]: inactive: 0.019
scaled lipid accumulation score [4]: inactive: 0.093
scaled lipid accumulation score [1]: inactive: 0.392

Oc1cccc2cccnc12 [Oxyquinoline hemisulfate]
scaled lipid accumulation score [1]: inactive: ≤ 0

CC(C)(O)C(Cl)(Cl)Cl
scaled lipid accumulation score [1]: inactive: ≤ 0

c1cc(Cc2cnc[nH]2)ccn1 [Immethridine dihydrobromide]
scaled lipid accumulation score [1]: inactive: ≤ -0.001

C[N+](C)(C)CC#CCOC(=O)Nc1cccc(Cl)c1
scaled lipid accumulation score [1]: inactive: ≤ 0
